# Data from the supplement of paper PMC10126150.
# Values marked as one replicate rest on one cluster of the flow cell; about a third of the high ones do not repeat.
# Tested on: ATP
# Test: switch fluorescence ratio, 500 uM ATP over buffer (Cy3 cluster intensity, sum of 5 cycles each) (fold (ratio)); higher = stronger signal-on switching upon ATP binding; sequences stand for … in TCGTCGGCAGCGTCAGATGTGTATAAGAGACAGTTTTTTTTTTTTTTTTTTTTTTTTT…TC
# Details: aptamer strand: ATP DNA aptamer (quencher-CACCTGGGGGAGTATTGCGGAGGAAGG + anchor), 100 nM annealed; ATP concentration: 500 uM; one replicate
# Summary of the method: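 For every switch-domain sequence, the fluorescence ratio is the mean of per-cluster values, each being summed target-cycle Cy3 intensity over summed buffer-cycle Cy3 intensity. Clusters outside 100-1000 RFU were excluded. On a modified Illumina MiSeq flow-cell, the Cy3-labelled switching-strand clusters were annealed to 100 nM quencher-labelled ATP aptamer, imaged in selection buffer and then after 15 min with 500 uM ATP at 22 °C. Five such cycles were run, with NaOH stripping and re-annealing between them.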
# 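Further: ATP exposure 15 min at 22 °C before imaging.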
row,Sequence,switch fluorescence ratio
1,AGGATCAATG,0.985
2,ATAATGATAA,1.03
3,TGGCTACT,1.14
4,TGCTTTCAGG,0.978
5,TGCGCGGTGG,1.02
6,CACTGATACT,1.16
7,TGGGGTATT,1.03
8,GAATCCGAGG,1.04
9,ACGGTCTCGT,0.999
10,GTGTCCGAGT,0.996
11,TCCGGCGTTG,1.06
12,TAGGGGTCAC,0.981
13,TTCATGATTA,0.993
14,GATAGCACCA,1.02
15,GAATAAGGAC,0.947
16,AGATCTTTAA,1.03
17,GCAGTCATTC,1.03
18,GGTTGTTGGT,0.97
19,TAGTGTCCGT,1.02
20,TGCCAAATAT,0.965
21,TTGGTCGTAT,0.981
22,TGAGTGCAGT,1
23,GTTTCGACTG,1.02

row,Sequence,switch fluorescence ratio
1,GGAGTCATAT,1.12
2,GGCATCTTCA,1
3,TTAGTTCGCG,1.01
4,CGGGTCCGAA,0.998
5,TGTGCTTAGC,1
6,CTGGGTTGTC,0.988
7,ACTGTTTCCT,1.01
8,GAGGTCAAAC,1.12
9,CAGTTCTCTT,0.962
10,TAGTGATATA,0.982
11,TCTCAGAGGT,0.97
12,TTGTAAGCGC,0.927
13,TACGGACG,1.12
14,CTATGACTGG,0.953
15,TTTAGAATAG,0.978
16,CCGGAGATG,1.88
17,GGGGCTTCGT,1.01
18,CTTGAGCATA,1.77
19,AGAGGTCACA,0.993
20,TACACTCGTA,1.06
21,ATCGTGCGCG,1.01
22,TTTAATAGTA,0.96
23,GGCGCGCCAA,1.03

row,Sequence,switch fluorescence ratio
1,CACGTTACGC,1.57
2,CTCGCGATTG,1.98
3,CGCGTATCGT,0.959
4,CTTTGCTGAG,1
5,ACGTAATCAA,1.15
6,CACTCGAAAG,1.02
7,CCAATGACGA,1.02
8,TGCTAAAGAG,0.956
9,ACGGGGGCCC,0.989
10,TAAGTTGGCC,0.972
11,TCGAAACACT,1.02
12,ATTGAAGCTA,1.01
13,GAGGGTGCAC,1.08
14,CGATTGTAGC,1.05
15,CCTAGACTAT,0.966
16,GGGAACTAAC,1.04
17,TCTAATGGGG,0.949
18,TAGTAAAGCG,1.01
19,GGTCGGGGCC,0.96
20,TCTCATTTCA,0.987
21,AGTATACAAT,0.973
22,GACAGTACTC,1.56
23,AGAAATACC,1.11

row,Sequence,switch fluorescence ratio
1,TATGCCCGGT,1.15
2,GAGACTGTTT,0.984
3,TTTCGAT,0.971
4,TTTTGATAGG,0.945
5,GGGCGAGACT,1.02
6,GAAAGATTG,1.06
7,AATGCTTCTA,0.978
8,CGAGCAAACG,1.21
9,AATAATGCCT,1.09
10,CTTGGAACGC,1.05
11,ACTGTACTAT,1.45
12,CTGGGTTAGA,0.966
13,GCCGGGCGAG,1
14,GACGTATACA,1.16
15,AGTGTTCTCA,0.972
16,GAGCTCATGG,0.99
17,TGCAGGT,1.05
18,TTCGGAAATT,1.04
19,AGATCCCTCA,0.998
20,CGGGTCACAC,1.23
21,GTATCTATTT,1.02
22,GTAAATTAGC,0.986
23,ATGTTGTTAG,1.02

row,Sequence,switch fluorescence ratio
1,AGGCTAGACG,0.989
2,GCGCATTTAT,1.05
3,AGAGGGCTCT,1.01
4,GAAAAGCGAG,0.943
5,AGAGGTGAGT,1
6,TGGAATAGAG,1
7,GATGTTATTG,0.965
8,TACGGGATTA,1.02
9,TTTTGTCGA,0.962
10,GTTTGTCTAT,0.955
11,AAATGTGCGT,1
12,AATAACTGCG,1
13,CAGCACCATA,1.13
14,TCCAAAAATG,1.02
15,GTTTTTTCT,0.972
16,GACAAATTAA,1.05
17,CGTGTGATCC,1.02
18,TCACTTCGTA,1.06
19,CTGGAGAGTT,0.95
20,CATCATGTAT,0.996
21,CAAGTTGTGG,0.996
22,GGTAGCAAAC,3.3
23,ACTCGACTAG,1.01

row,Sequence,switch fluorescence ratio
1,ATGACGGCAT,1.2
2,AGGCCTTCGC,1.04
3,GTATTGCACC,0.998
4,TTGTTGTGCG,0.981
5,AAGTAAAGGG,1.02
6,CACGCGAGAA,1.13
7,CTTTATAGAC,1.02
8,CAACAATTTT,0.979
9,AAATCTGCAA,4.25
10,TGGTACTTT,1.01
11,CTATTGTGCT,0.993
12,TGATCTGTGC,0.979
13,CGGCTGAAAT,1.05
14,GACGTATATC,1.94
15,GGTTAAGGAA,0.972
16,CCTGTTAGAG,0.987
17,CCATTAAGAC,1.17
18,GAGAGTAGTA,0.974
19,CAAAATAAGG,1.01
20,GAAACAGCCC,1.1
21,AAAGAGGTGC,1.07
22,CAAGCCTGTA,1.01
23,TCACTCGACT,1.08

row,Sequence,switch fluorescence ratio
1,TAGTACAGGT,1.04
2,TAAGTTGAGG,1.01
3,GTGATTAGCT,0.995
4,GCGATGGTTA,1.03
5,CCCGGCGGGG,1.06
6,TTCGCCAAAA,1.09
7,TCATTTCGGT,0.982
8,TTTGTGCGGC,1.05
9,TACGTTGGTG,1.04
10,TGCAAGGCAA,1.04
11,AATACCCGCA,1.18
12,ACGACGCAGG,2.17
13,TAAGTGTACC,1.1
14,GACATCGTAA,1.09
15,TAGATGCGAT,1.06
16,GGTGGCGTAA,0.997
17,GCCAAATTGA,0.948
18,ACTTTCGTAT,0.962
19,TTTTTGCAGG,1.03
